Experimental data as given in the supplement of paper PMC3724861.
The other results are listed elsewhere or left out.

tested on: T1, Caupolican (Caup) homeodomain DNA-binding domain; assay: PBM E-score (8-mer, recovered from the published 9-mer minima) (E-score (dimensionless, -0.5 to 0.5)); Drosophila protein; higher = stronger relative binding preference, active = 0.31 or more
T1 sequence: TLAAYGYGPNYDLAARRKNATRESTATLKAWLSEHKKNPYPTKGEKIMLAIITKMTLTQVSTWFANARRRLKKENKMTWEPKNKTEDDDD
Description: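 Protein binding microarray (PBM): in vitro transcribed/translated Caupolican (Caup) homeodomain DNA-binding domain (residues 214-303) applied at 100 nM to a universal 8-mer PBM array (Agilent AMADID 015681). The 8-mer enrichment score (E-score, range -0.5 to 0.5) was computed, and each 9-mer score is the minimum E-score of its two constituent 8-mers. The E-score is the same for a 9-mer and its reverse complement; 0.31 is the stated binding threshold.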

PBM E-score, ≥ 0.0488:
CGACCTGA

PBM E-score, ≥ 0.175:
GATAACGA

PBM E-score, ≥ 0.0393:
TCGAGCAA

PBM E-score, ≥ 0.104:
ATTGGTGA

PBM E-score, ≥ 0.164:
ATATAAGA

PBM E-score, active:
ATTACACA ≥ 0.332
CACATGTC 0.387
GACATACA 0.389
CTGTTACA 0.33
AGGACATG 0.38

PBM E-score, ≥ 0.0481:
GAGTTCAA

PBM E-score, inactive:
AAGTTTAG -0.0117
CACCGCGC -0.175
AGGGTTTG 0.0185
CATGGTGC -0.00637
GTCATTTA 0.184
AGCCTCAG -0.137
CCGAGCGG -0.232
AGGAATCG 0.0328
GGGCGGCA -0.3
CTGAATCC -0.0355
ACTTAGGG -0.0599
AAAGATTG 0.00127
CGGTTTGC -0.0682
CCACATGC 0.0879
GGATGAGA -0.0395
CGTGGTGC -0.121
ACCGCGAT -0.0575
AGGCGATC -0.101
AAGATCCC -0.0141
ACCAGAGT 0.0242
TCTTCTCA -0.081
CGCGGGAG -0.278
ATTAAAAC 0.195
GCGCCAAC -0.0963
CACTTATG 0.066
GACCCAGA -0.134
CCCGAAGC -0.126
AGAGTCCT -0.0833
GATCCTGC -0.0562
GCCGGCGC -0.188
CTGGTTCC -0.0617
CTTTTTTC -0.0534
CCGATGAA -0.0817
TAGCCCGA -0.149
AGTGTACC 0.207
GTGGCACA -0.0183
AGGTTGGC -0.14
ATGCGCCG -0.109
AGTGCGCA -0.0732
CAGGAGCC -0.183
ACTACGAT 0.0836
ATTGTCGA 0.127
ACATAAGA 0.232
AATGCAGG 0.03
TGATTCCA 0.0342
ATGCGCTC -0.0553
ACACCTTA 0.128
AGATTCTC -0.0265
GCACTTGA -0.00239
CGTATCAA 0.0341
CTGATCAG 0.0411
AACAATAG 0.0973
ATCACGAC 0.113
GACAGACC 0.0467
CAATTCCG -0.0737
AACAGCAG 0.0469
AGATGCAA 0.0564
CGCAGCTC -0.176
ACTATGAA 0.123
ATGGGCGA -0.0775
AGACAAGG 0.189
GCCTTTCA -0.177
GGAGTCAC 0.0172
GTCCGCAA -0.0595
ATGGCAGG -0.0965
GCGCTTAA -0.135
CGACTTCC -0.131
CGGCAGCA -0.194
ATGGCGGG -0.157
CGCTAGAA -0.14
CGAGAGGC -0.183
AGGTCGCG -0.108
GCGTCTAA -0.0779
AAATACTC 0.166
AAGGTTTC -0.0162
GCCTGGAC -0.117
AGTTGAGG -0.144
ACTTATCC 0.0353
ACCTGCTA 0.0336
CGGAACCC -0.0462
GAGCTTGA -0.112
ATTTCACG -0.0493
AGACTAAG -0.048
AGAGAAGG -0.225
ATTGAATC 0.113
AACGTCTA 0.0278
GAGCCTGA -0.187
GGAAAATA 0.0463
CCATAACG -0.00078
AAGGAGGA -0.11
ATAACTTC 0.0508
CCCTTGAG -0.169
GCCACTGA -0.153
GAAGGTTA -0.0583
CATACTGA 0.109
ACCCTCGG -0.148
CATGAGGG -0.0921
GCCAGAGA -0.122
GTAGAGGA 0.00507
CATTTGTC 0.189
AATCAGCG -0.0539
AACGCCGT -0.0851
ACACTGGA 0.087
GCTGTATA 0.194
GATCCCAA -0.0943
GCATGGGA -0.103
AAATTCTC -0.0223
AAATACCT 0.028
CCTATTGC -0.0285
AGATAACA 0.221
GTGCTCTA -0.0573
CATAGAAC -0.0514
AACGTTTG -0.00758
CAGCTAGA -0.0247
GAAGATCC -0.11
AGTAAAAC 0.108
ACTGCCGC -0.193
CGTGCATC -0.0481
ATCGTAAG 0.03
CCCGCGAA -0.153
GGACATAC 0.179
CCTTTTAC -0.00807
AACAAATG 0.174
CGGAGCTC -0.261
CTTCCAAA -0.00092
CCCATGAA -0.0586
TCAGGCAA -0.0598
ATGCAGAC 0.0848
AGCTAACG 0.014
GCTTAAGA -0.116
AAGATTCG -0.0224
AAAGCAAG -0.00791
AGTGATAA 0.126
CTGTCGAA 0.125
CAAGGAAC 0.117
AGGCCAAA -0.112
CCGCTCGC -0.2
CAATGCTA 0.0965
CGTTTGCA 0.048
ACCCGTTA -0.00165
AAATAAGA 0.0738
CCTCGCTA -0.113
GCAGGACA 0.111
AAGACCTC -0.115
ACCCATAG -0.13
AAGCGCTG -0.0856
CTCAAGGA -0.14
CCATAGCA 0.0725
ATAAAACA 0.257
CGCCACAC -0.0919
GCTCTTCA -0.15
CTTTAAAC 0.0573
CGGATGAA 0.0486
CATACTCA 0.175
GACTGCGC -0.165
AGTCGGGA -0.162
AACCCGGC -0.182
CACAATGA 0.116
CAAAATTG 0.122
CCCTCTAG -0.126
ATGTAGAG 0.128
ATCCATCG 0.0217
GACTCGCA -0.115
AGTCTGCA -0.0743
ATCATATG 0.233
AAGTCTGG -0.0338
CAGCAGCA 0.00905
AATCGGTC -0.0649
CGAGGGAG -0.158
CACAGTAG 0.0522
CCATCTTA -0.0877
GTACAGAC 0.241
ACTAGTTG 0.203
ATGCTGCG -0.0674
AATGGCGG -0.225
CTCAAACC -0.0882
CCGATACA 0.118
CCCTCTGC -0.317
ATAGTGCG -0.048
AACACGGA 0.31
CATCTACC 0.00101
AGGTATGC 0.108
AAGGGCGC -0.172
CCGGCCAC -0.244
ACTAAGTA 0.14
CAGCGTTA -0.0155
GACAGGTC 0.098
CGGACTTA -0.075
TCGGAGAA -0.155
ACTGGGGC -0.173
CGACGAGC -0.0955
CCTTAAGC -0.204
CGTTAGTA 0.101
GATAACCA 0.122
CGGTCTAC -0.0498
AACAATCG 0.191
GGCTGACC -0.0683
ATAGGCGA -0.0622
AGACCTAG -0.177
AGTCGGGG -0.204
CAATCCTA -0.065
CGTCCGAG -0.108
AACTAGTG 0.084
CACTGCTA 0.075
ACGCGGGG -0.14
ACAGTAAC 0.157
GGCACGCA -0.188
CCCCTAGC -0.264
CTTCTTGA -0.0627

PBM E-score, ≥ 0.0213:
ACCTACCA

PBM E-score, ≥ 0.293:
AACAGACA

PBM E-score, ≥ 0.0941:
ACTAACTG

PBM E-score, ≥ -0.0396:
TCAGCCGA
